In a collection of fitness landscapes (doi:10.1016/j.celrep.2020.107928):
Over roughly 81,000 sequences, “one-hybrid fitness for binding parS DNA” has its median near -0.17; the highest 2% begin near 0.51. Some of the results follow.

B1: Caulobacter ParB omega fusion; a variant is named by its letters at X, in order, B8GW30 (parent)
chain: MESVVVGEPGMSEGRRGLGRGLSALLGEVDAAPAQAPGEQLGGSREAPIEILQRNPDQPRRTFREEDLEDLSNSIREKGVLQPILVRPSPDTAGEYQIVAGERAWRAAQRAGLKTVPIMVRELDDLAVLEIGIIENVQRADLNVLEEALSYKVLMEKFERTQENIAQTIGKSXSHVANXMRLLXLPDEVQSYLVSGELTAXHARAIAAAADPVALAKQIIEGGLSVRETEALARKAPNLSAGKSKGGRPPRVKDTDTQALESDLSSVLGLDVSIDHRGSTGTLTITYATLEQLDDLCNRLTRGI

Variants of: B1
Assay: one-hybrid fitness for binding parS DNA (scaled: cognate 1, non-cognate 0); higher = stronger binding
Conditions: with parS DNA site
How it was run: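 Fitness is the rescaled log change in variant-to-wild-type read ratio, measured by Illumina sequencing of plasmids before and after bacterial one-hybrid selection. The scale puts cognate at 1 and non-cognate at 0. Selection of Caulobacter ParB libraries, four specificity codons randomised, took place in E. coli USO with a HIS3 reporter, site 19 bp from the promoter, over 48 hours at 37°C on M9-minus-histidine with 0.1 mM IPTG and 5 mM 3-AT.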

Variant | one-hybrid fitness for binding parS DNA
DKDK | ≤ 0.2
HLSA | ≤ 0.2
TCQL | ≤ 0.2
YDGC | ≤ 0.2
KYCC | ≤ 0.2
DDKR | ≤ 0.2
YDNC | ≤ 0.2
CSHW | ≤ 0.2
ATNS | ≤ 0.2
THFA | ≤ 0.2
GKMI | ≤ 0.2
PIVP | ≤ 0.2
QQIE | ≤ 0.2
AARD | ≤ 0.2
RFDM | 0.229
HDFG | ≤ 0.2
TYQC | ≤ 0.2
QIIG | ≤ 0.2
YYKC | ≤ 0.2
QERL | ≤ 0.2
QRMW | ≤ 0.2
TGKF | ≤ 0.2
RGCD | ≤ 0.2
APDS | ≤ 0.2
PDRE | ≤ 0.2

Variant | one-hybrid fitness for binding parS DNA
PSYR | ≤ 0.2
VKWF | ≤ 0.2
LTNI | ≤ 0.2
KLRY | ≤ 0.2
PQTI | ≤ 0.2
CQTS | ≤ 0.2
QRHC | ≤ 0.2
ECLD | ≤ 0.2
SPGV | ≤ 0.2
QFMS | ≤ 0.2
VSCH | ≤ 0.2
PQTF | ≤ 0.2
ECNG | ≤ 0.2
AVNP | ≤ 0.2
YCWS | ≤ 0.2
NQQC | ≤ 0.2
YDRS | ≤ 0.2
MANC | ≤ 0.2
ACAT | ≤ 0.2
RWLY | 0.266
SMLS | ≤ 0.2
DYDS | ≤ 0.2
LSNG | ≤ 0.2
FLNF | ≤ 0.2
PPMH | 0.241

Variant | one-hybrid fitness for binding parS DNA
KLDW | ≤ 0.2
ANCL | ≤ 0.2
RVEP | ≤ 0.2
FMLY | ≤ 0.2
TEHK | ≤ 0.2
EDRC | ≤ 0.2
FYTV | ≤ 0.2
PQEY | ≤ 0.2
YCWI | ≤ 0.2
MLPW | ≤ 0.2
CPSS | ≤ 0.2
TVTW | ≤ 0.2
HMVS | ≤ 0.2
YRKN | ≤ 0.2
MWVV | ≤ 0.2
MTKV | ≤ 0.2
ILEC | ≤ 0.2
KRNN | ≤ 0.2
VSTC | ≤ 0.2
SEMV | ≤ 0.2
FCRC | ≤ 0.2
FWVR | ≤ 0.2
HADS | ≤ 0.2
WAAM | ≤ 0.2
MLVC | ≤ 0.2

Variant | one-hybrid fitness for binding parS DNA
YPLD | ≤ 0.2
LWTW | ≤ 0.2
VQSG | ≤ 0.2
QEAK | 0.349
TSRQ | ≤ 0.2
LKFC | ≤ 0.2
PCSG | ≤ 0.2
GGHY | ≤ 0.2
LQCQ | ≤ 0.2
MGRG | ≤ 0.2
IDVG | ≤ 0.2
HRFI | ≤ 0.2
HLIS | ≤ 0.2
TGCG | ≤ 0.2
SCGE | ≤ 0.2
VYTY | ≤ 0.2
VWLM | ≤ 0.2
SMET | ≤ 0.2
QLIS | ≤ 0.2
SDGV | ≤ 0.2
VIIS | ≤ 0.2
HYQC | ≤ 0.2
TATH | ≤ 0.2
QHSW | ≤ 0.2
SRTC | ≤ 0.2

Variant | one-hybrid fitness for binding parS DNA
AHNP | ≤ 0.2
WSRF | ≤ 0.2
QTHR | ≤ 0.2
GNDT | ≤ 0.2
QRDP | ≤ 0.2
NVYW | ≤ 0.2
KFSD | ≤ 0.2
QQNE | ≤ 0.2
HLGR | ≤ 0.2
KSKC | ≤ 0.2
LATK | ≤ 0.2
NRSS | ≤ 0.2
IVNV | ≤ 0.2
LESN | ≤ 0.2
WMKC | ≤ 0.2
HAES | ≤ 0.2
WYQG | ≤ 0.2
DPHQ | ≤ 0.2
TFTC | ≤ 0.2
RNEE | ≤ 0.2
PQHL | ≤ 0.2
EHKL | ≤ 0.2
DAAW | ≤ 0.2
IEHS | ≤ 0.2
VAAP | ≤ 0.2

Variant | one-hybrid fitness for binding parS DNA
KWCV | 0.246
RWPT | 0.284
MQRS | ≤ 0.2
QCAR | ≤ 0.2
LMLL | ≤ 0.2
PMRD | ≤ 0.2
DGNC | ≤ 0.2
AIHH | ≤ 0.2
QDCP | ≤ 0.2
SCEE | ≤ 0.2
HHNY | ≤ 0.2
DLHL | ≤ 0.2
PLGH | ≤ 0.2
DYRY | ≤ 0.2
IGPF | ≤ 0.2
GEMW | ≤ 0.2
YRKY | ≤ 0.2
QDVT | ≤ 0.2
LCTK | ≤ 0.2
RTGR | ≤ 0.2
TAVM | ≤ 0.2
VMFF | ≤ 0.2
HYNS | ≤ 0.2
PMRV | ≤ 0.2
RAVY | 0.412

Variant | one-hybrid fitness for binding parS DNA
RHER | ≤ 0.2
PCTG | ≤ 0.2
QNPE | ≤ 0.2
HATC | ≤ 0.2
LGRC | ≤ 0.2
HQEL | ≤ 0.2
VQRK | ≤ 0.2
ENSK | ≤ 0.2
MALG | ≤ 0.2
GLCW | ≤ 0.2
RKSY | 0.366
ISCI | ≤ 0.2
YGPV | ≤ 0.2
NVTV | ≤ 0.2
RLSC | 0.98
RTGN | 0.44
RGLW | ≤ 0.2
QPIF | ≤ 0.2
TVSV | ≤ 0.2
KVWR | ≤ 0.2
RIDH | 0.231
AFAH | ≤ 0.2
EYRF | ≤ 0.2
HPSG | ≤ 0.2
SRPH | ≤ 0.2

Variant | one-hybrid fitness for binding parS DNA
KAMG | ≤ 0.2
CRHS | ≤ 0.2
SPVM | ≤ 0.2
HQTI | ≤ 0.2
YRGR | ≤ 0.2
CSTL | ≤ 0.2
TTDC | ≤ 0.2
DHGT | ≤ 0.2
FSIV | ≤ 0.2
LWAV | ≤ 0.2
IWRI | ≤ 0.2
ASKG | ≤ 0.2
HHPW | ≤ 0.2
NQRT | ≤ 0.2
PQSA | ≤ 0.2
AGIK | ≤ 0.2
PNWL | ≤ 0.2
GKCN | ≤ 0.2
WIAT | ≤ 0.2
DFTV | ≤ 0.2
